{"sequences": {"note": "Sequences of proteins named here, by UniProt entry; tags and fusion partners are left off.", "UniProt Q16637": "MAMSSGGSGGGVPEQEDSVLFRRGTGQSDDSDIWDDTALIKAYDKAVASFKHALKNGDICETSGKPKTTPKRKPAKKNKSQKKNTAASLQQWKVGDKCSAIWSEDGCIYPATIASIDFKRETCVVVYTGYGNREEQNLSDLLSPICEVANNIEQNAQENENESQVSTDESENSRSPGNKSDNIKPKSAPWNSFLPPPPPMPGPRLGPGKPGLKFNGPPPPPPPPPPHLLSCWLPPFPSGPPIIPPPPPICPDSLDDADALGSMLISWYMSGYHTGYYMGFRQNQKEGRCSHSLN", "UniProt Q9UHI6": "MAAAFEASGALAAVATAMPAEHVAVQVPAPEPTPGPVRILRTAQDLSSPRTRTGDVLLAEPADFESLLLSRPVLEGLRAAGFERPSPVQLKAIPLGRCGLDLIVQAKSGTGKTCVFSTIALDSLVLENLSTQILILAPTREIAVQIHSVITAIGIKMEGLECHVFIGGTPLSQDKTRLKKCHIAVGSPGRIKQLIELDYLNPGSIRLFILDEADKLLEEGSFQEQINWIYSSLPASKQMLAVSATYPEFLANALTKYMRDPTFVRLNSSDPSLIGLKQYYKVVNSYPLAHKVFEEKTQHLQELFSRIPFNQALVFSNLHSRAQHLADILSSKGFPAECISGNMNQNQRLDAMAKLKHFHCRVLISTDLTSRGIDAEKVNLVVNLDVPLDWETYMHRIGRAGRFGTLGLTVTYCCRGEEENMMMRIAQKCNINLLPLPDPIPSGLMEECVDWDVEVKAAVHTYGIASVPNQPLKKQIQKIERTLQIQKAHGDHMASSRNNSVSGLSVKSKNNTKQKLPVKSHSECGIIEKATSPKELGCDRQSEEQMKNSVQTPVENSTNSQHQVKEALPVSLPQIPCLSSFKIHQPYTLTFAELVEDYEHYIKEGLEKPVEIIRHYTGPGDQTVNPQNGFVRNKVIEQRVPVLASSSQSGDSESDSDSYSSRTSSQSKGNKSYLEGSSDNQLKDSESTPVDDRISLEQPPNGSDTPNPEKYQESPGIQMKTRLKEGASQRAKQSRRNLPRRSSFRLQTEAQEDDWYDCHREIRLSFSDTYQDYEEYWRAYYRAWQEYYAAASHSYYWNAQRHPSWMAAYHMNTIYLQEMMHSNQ", "UniProt Q8WXD5": "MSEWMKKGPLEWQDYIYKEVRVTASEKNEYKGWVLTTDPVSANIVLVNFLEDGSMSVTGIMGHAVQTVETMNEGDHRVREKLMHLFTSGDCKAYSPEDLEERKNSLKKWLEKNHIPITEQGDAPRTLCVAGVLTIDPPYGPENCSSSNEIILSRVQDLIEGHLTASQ", "UniProt Q8TEQ6": "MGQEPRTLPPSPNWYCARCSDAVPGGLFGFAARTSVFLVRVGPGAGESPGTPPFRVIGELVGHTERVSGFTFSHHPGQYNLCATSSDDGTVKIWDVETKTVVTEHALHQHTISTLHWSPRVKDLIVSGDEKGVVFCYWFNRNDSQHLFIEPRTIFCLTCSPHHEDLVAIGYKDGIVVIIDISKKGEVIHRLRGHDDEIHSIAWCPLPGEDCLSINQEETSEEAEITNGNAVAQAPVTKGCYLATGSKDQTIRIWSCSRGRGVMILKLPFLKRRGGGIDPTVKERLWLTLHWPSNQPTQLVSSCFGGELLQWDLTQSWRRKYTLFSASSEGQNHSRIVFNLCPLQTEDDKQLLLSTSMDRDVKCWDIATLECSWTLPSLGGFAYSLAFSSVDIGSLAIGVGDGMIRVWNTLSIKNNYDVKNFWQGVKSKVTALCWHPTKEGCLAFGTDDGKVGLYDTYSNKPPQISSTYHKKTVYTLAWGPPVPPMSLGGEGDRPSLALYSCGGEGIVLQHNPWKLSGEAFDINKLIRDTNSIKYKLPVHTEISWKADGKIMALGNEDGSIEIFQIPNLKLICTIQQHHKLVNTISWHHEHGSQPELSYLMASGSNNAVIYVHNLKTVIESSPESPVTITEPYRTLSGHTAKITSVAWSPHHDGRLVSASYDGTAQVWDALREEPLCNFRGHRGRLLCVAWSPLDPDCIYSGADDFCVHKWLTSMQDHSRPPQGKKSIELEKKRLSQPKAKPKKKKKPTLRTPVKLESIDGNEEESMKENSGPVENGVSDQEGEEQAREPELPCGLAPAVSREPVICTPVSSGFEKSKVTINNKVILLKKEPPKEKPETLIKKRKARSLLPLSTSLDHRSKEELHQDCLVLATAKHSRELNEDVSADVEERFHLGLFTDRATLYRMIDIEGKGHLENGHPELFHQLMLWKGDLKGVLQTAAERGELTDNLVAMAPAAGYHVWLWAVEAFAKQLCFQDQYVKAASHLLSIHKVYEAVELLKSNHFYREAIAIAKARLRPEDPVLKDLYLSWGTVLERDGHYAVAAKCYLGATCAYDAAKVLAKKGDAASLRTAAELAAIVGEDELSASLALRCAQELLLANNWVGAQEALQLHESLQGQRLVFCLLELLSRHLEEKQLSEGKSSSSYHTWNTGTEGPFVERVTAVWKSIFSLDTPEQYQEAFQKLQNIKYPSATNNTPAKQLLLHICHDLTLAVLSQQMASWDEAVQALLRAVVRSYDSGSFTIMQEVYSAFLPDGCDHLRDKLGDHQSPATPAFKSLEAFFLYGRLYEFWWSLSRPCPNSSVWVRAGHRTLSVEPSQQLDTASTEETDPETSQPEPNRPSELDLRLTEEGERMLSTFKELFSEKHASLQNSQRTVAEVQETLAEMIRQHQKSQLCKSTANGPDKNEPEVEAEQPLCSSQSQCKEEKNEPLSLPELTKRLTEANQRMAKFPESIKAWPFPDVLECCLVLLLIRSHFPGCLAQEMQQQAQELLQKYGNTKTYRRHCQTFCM", "UniProt Q9H840": "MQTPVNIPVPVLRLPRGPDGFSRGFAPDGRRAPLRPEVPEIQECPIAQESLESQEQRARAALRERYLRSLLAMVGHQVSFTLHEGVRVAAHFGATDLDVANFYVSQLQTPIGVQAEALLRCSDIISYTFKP", "UniProt O14893": "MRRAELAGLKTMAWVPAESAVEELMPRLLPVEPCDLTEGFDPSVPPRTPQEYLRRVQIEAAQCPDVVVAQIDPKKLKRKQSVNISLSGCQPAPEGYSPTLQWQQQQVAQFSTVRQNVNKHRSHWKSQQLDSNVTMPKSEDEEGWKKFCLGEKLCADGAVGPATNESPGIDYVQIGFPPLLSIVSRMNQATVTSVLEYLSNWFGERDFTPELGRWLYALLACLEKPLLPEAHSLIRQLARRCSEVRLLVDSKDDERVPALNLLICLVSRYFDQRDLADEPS", "UniProt P35080": "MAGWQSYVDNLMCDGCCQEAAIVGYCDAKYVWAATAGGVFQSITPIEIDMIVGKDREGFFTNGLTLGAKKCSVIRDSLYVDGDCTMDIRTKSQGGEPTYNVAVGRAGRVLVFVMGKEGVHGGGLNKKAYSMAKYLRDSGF"}, "source": "paper PMC1939999", "key": {"[1]": {"biological_target": "survival of motor neurons (SMN) protein (human (endogenous in HeLa)) (UniProt Q16637)", "assay": "co-IP; MANSMA1 anti-SMN mAb on anti-mouse Ig Dynabeads, 16 h at 4°C with HeLa nuclear extract (420 mM KCl, 20 mM HEPES-KOH pH 7.9), washed 5x with PBS, western blot"}, "[2]": {"biological_target": "survival of motor neurons (SMN) protein (human (endogenous in HeLa)) (UniProt Q16637)", "assay": "co-sedimentation; HeLa nuclear extract (420 mM KCl) on 15-30% sucrose density gradient in 150 mM NaCl, 50 mM Tris HCl pH 7.4, 5 mM MgCl2, 21 hours at 4°C; fractions western blotted"}, "[3]": {"biological_target": "survival of motor neurons (SMN) protein (human (endogenous in HeLa)) (UniProt Q16637)", "assay": "co-IP; MANSMA1 anti-SMN mAb on Dynabeads with HeLa cytoplasmic extract to which KCl was added to the same concentration as the nuclear extraction buffer (440 mM total)"}, "[4]": {"biological_target": "survival of motor neurons (SMN) protein (human (endogenous in HeLa)) (UniProt Q16637)", "assay": "co-IP; MANSMA1 anti-SMN mAb on anti-mouse Ig Dynabeads, 16 h at 4°C with HeLa cytoplasmic extract (10 mM KCl, 10 mM HEPES-KOH pH 7.9), washed 5x with PBS, western blot"}, "[5]": {"biological_target": "survival of motor neurons (SMN) protein (human (endogenous in HeLa)) (UniProt Q16637)", "assay": "co-sedimentation; HeLa cytoplasmic extract (low salt) on 15-30% sucrose density gradient in 150 mM NaCl, 50 mM Tris HCl pH 7.4, 5 mM MgCl2, 21 hours at 4°C; fractions western blotted"}, "[6]": {"biological_target": "gemin3 (human (endogenous in HeLa)) (UniProt Q9UHI6)", "assay": "co-IP; anti-gemin antibodies (GEM6B, GEM7B, GEM5P, GEM4C, GEM4D, MANSIP1B, MANSIP1A, rabbit anti-gemin3) on Dynabeads with total RIPA extract of HeLa cells, 16 h at 4°C; western blot with anti-SMN mAb MANSMA12"}, "[7]": {"biological_target": "gemin6 (human (endogenous in HeLa)) (UniProt Q8WXD5)", "assay": "co-IP; anti-gemin antibodies (GEM6B, GEM7B, GEM5P, GEM4C, GEM4D, MANSIP1B, MANSIP1A, rabbit anti-gemin3) on Dynabeads with total RIPA extract of HeLa cells, 16 h at 4°C; western blot with anti-SMN mAb MANSMA12"}, "[8]": {"biological_target": "gemin5 (human (endogenous in HeLa)) (UniProt Q8TEQ6)", "assay": "co-IP; anti-gemin antibodies (GEM6B, GEM7B, GEM5P, GEM4C, GEM4D, MANSIP1B, MANSIP1A, rabbit anti-gemin3) on Dynabeads with total RIPA extract of HeLa cells, 16 h at 4°C; western blot with anti-SMN mAb MANSMA12"}, "[9]": {"biological_target": "gemin7 (human (endogenous in HeLa)) (UniProt Q9H840)", "assay": "co-IP; anti-gemin antibodies (GEM6B, GEM7B, GEM5P, GEM4C, GEM4D, MANSIP1B, MANSIP1A, rabbit anti-gemin3) on Dynabeads with total RIPA extract of HeLa cells, 16 h at 4°C; western blot with anti-SMN mAb MANSMA12"}, "[10]": {"biological_target": "gemin2 (human (endogenous in HeLa)) (UniProt O14893)", "assay": "co-IP; anti-gemin antibodies (GEM6B, GEM7B, GEM5P, GEM4C, GEM4D, MANSIP1B, MANSIP1A, rabbit anti-gemin3) on Dynabeads with total RIPA extract of HeLa cells, 16 h at 4°C; western blot with anti-SMN mAb MANSMA12"}}, "note": "Results are given in words; binding and its absence hold for the method and conditions named. Binding seen in cells or lysates may run through a third protein. Some results given as binding are weak or reduced against the parent protein; the word gives no strength."}
{"substance": "gemin5 (from UniProt Q8TEQ6 1-1508)", "values": [{"measurement": "binding", "setting": "[1]", "result": "no binding (condition: in nuclear extract)"}, {"measurement": "binding", "setting": "[2]", "result": "no binding (condition: in nuclear extract)"}, {"measurement": "binding", "setting": "[3]", "result": "binds"}, {"measurement": "binding", "setting": "[4]", "result": "binds"}, {"measurement": "binding", "setting": "[5]", "result": "binds"}]}
{"substance": "gemin7 (from UniProt Q9H840 1-131)", "values": [{"measurement": "binding", "setting": "[5]", "result": "binds"}]}
{"substance": "survival of motor neurons (SMN) protein (from UniProt Q16637 1-294)", "values": [{"measurement": "binding", "setting": "[6]", "result": "binds"}, {"measurement": "binding", "setting": "[7]", "result": "binds"}, {"measurement": "binding", "setting": "[8]", "result": "binds"}, {"measurement": "binding", "setting": "[9]", "result": "binds"}, {"measurement": "binding", "setting": "[10]", "result": "binds"}]}
{"substance": "gemin3 (from UniProt Q9UHI6 1-824)", "values": [{"measurement": "binding", "setting": "[5]", "result": "binds"}]}
{"substance": "gemin6 (from UniProt Q8WXD5 1-167)", "values": [{"measurement": "binding", "setting": "[5]", "result": "binds"}]}
{"substance": "gemin2 (from UniProt O14893 1-280)", "values": [{"measurement": "binding", "setting": "[5]", "result": "binds"}]}
{"substance": "profilin II (from UniProt P35080 1-140)", "values": [{"measurement": "binding", "setting": "[5]", "result": "no binding"}]}
